Sequences and labels used below:
B1: Caulobacter ParB omega fusion; a variant is named by its letters at X, in order, B8GW30 (parent)
chain: MESVVVGEPGMSEGRRGLGRGLSALLGEVDAAPAQAPGEQLGGSREAPIEILQRNPDQPRRTFREEDLEDLSNSIREKGVLQPILVRPSPDTAGEYQIVAGERAWRAAQRAGLKTVPIMVRELDDLAVLEIGIIENVQRADLNVLEEALSYKVLMEKFERTQENIAQTIGKSXSHVANXMRLLXLPDEVQSYLVSGELTAXHARAIAAAADPVALAKQIIEGGLSVRETEALARKAPNLSAGKSKGGRPPRVKDTDTQALESDLSSVLGLDVSIDHRGSTGTLTITYATLEQLDDLCNRLTRGI

Over roughly 81,000 sequences, “one-hybrid fitness for binding NBS DNA” has its median near -0.1; the highest 2% begin near 0.36. Some of the results follow.

Variants of B1 are the subject of this assay. Nature of the assay: one-hybrid fitness for binding NBS DNA (the Noc-binding site; scaled: cognate 1, non-cognate 0); higher = stronger binding. The conditions noted are these: with NBS DNA site. The method in brief:
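On M9-minus-histidine containing 0.1 mM IPTG and 5 mM 3-AT, E. coli USO cells with a HIS3 reporter, site 19 bp from the promoter, grew 48 hours at 37°C to select Caulobacter ParB libraries randomised at four specificity codons. Plasmids from before and after were Illumina-sequenced, with three replicate libraries pooled and variants under 10 reads left out. Fitness is the log change in variant-to-wild-type read ratio, rescaled against cognate and non-cognate.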
Regarding RKKY, the “one-hybrid fitness for binding NBS DNA” value turned out to be 0.38.
As to ESED, the “one-hybrid fitness for binding NBS DNA” value was not above 0.2.
The same measure for HPSK: not above 0.2; for RYNY: not above 0.2; for SWAC: not above 0.2.
The same measure for NRNI: not above 0.2.
Then ERTT, with not above 0.2; and RRCG, with 0.296; and MMCS, with not above 0.2.
Consider IVET, for which the “one-hybrid fitness for binding NBS DNA” value is not above 0.2.
Then YDYR, with not above 0.2; and NSHT, with not above 0.2.
On to CGHS, for which the “one-hybrid fitness for binding NBS DNA” value was not above 0.2.
Then NVHF, with not above 0.2; and AVHP, with not above 0.2; and AYHS, with not above 0.2.
Then VKLK, with not above 0.2; and ACSL, with not above 0.2; and DCGT, with not above 0.2.
The same measure for LKYS: not above 0.2; for YTAE: not above 0.2.
For VCRR, the “one-hybrid fitness for binding NBS DNA” value stood at 0.246.
Then VPPK, with not above 0.2; and WPQD, with not above 0.2.
Then DRSS, with not above 0.2; and HNSS, with not above 0.2.
Consider DCPF, for which the “one-hybrid fitness for binding NBS DNA” value was not above 0.2.
Then LDSL, with not above 0.2.
Then TLGC, with not above 0.2; and SYSR, with not above 0.2.
The same measure for KQRR: 0.416; for RQPY: not above 0.2.
As for ITAV, the “one-hybrid fitness for binding NBS DNA” value is not above 0.2.
For the variant CSGA, the “one-hybrid fitness for binding NBS DNA” value is not above 0.2.
The same measure for GHSC: not above 0.2; for IDTS: not above 0.2; for IRCN: not above 0.2.
Then QTHD, with not above 0.2; and KRKK, with 0.26; and EWSS, with not above 0.2.
Then PPPE, with not above 0.2.
Turning to AWRR, the “one-hybrid fitness for binding NBS DNA” value is not above 0.2.
Then TILI, with not above 0.2.
Then RKDI, with not above 0.2; and HGDT, with not above 0.2.
Take CRNY: the “one-hybrid fitness for binding NBS DNA” value is not above 0.2.
Then WMRG, with not above 0.2.
The same measure for LYTM: not above 0.2.
Then DAID, with not above 0.2; and SKQS, with not above 0.2.
In the case of LVMV, the “one-hybrid fitness for binding NBS DNA” value is not above 0.2.
Then TASS, with not above 0.2; and HSPE, with not above 0.2.
The same measure for QNCS: not above 0.2; for AITY: not above 0.2; for EQAA: not above 0.2.
Then RAYQ, with not above 0.2; and QYMD, with not above 0.2; and NTFT, with not above 0.2.
Turning to KSAV, the “one-hybrid fitness for binding NBS DNA” value was not above 0.2.
On to YKCS, for which the “one-hybrid fitness for binding NBS DNA” value was not above 0.2.
The same measure for VTQY: not above 0.2.
The same measure for CFPR: not above 0.2; for WADM: not above 0.2; for FLRS: not above 0.2.
Then TYVL, with not above 0.2; and EHLG, with not above 0.2.
Regarding LRAE, the “one-hybrid fitness for binding NBS DNA” value is not above 0.2.
Then KYRP, with not above 0.2; and RMII, with not above 0.2; and HPAE, with not above 0.2.
The same measure for REWS: not above 0.2.
As for PPSK, the “one-hybrid fitness for binding NBS DNA” value was not above 0.2.
The same measure for QLDV: not above 0.2; for RMCL: not above 0.2; for PVTV: not above 0.2.
The same measure for STHK: not above 0.2; for QVSY: not above 0.2; for PNPN: not above 0.2.
Then RTGQ, with not above 0.2; and SICV, with not above 0.2.
For QKKC, the “one-hybrid fitness for binding NBS DNA” value turned out to be 0.385.
Then ASKV, with not above 0.2; and LWWR, with not above 0.2.
Then FVNS, with not above 0.2; and DVRI, with not above 0.2; and HIDW, with not above 0.2.
Then FTPR, with not above 0.2.
On to GWAK, for which the “one-hybrid fitness for binding NBS DNA” value came to 0.264.
The same measure for LLQG: not above 0.2; for DPYG: not above 0.2; for RQKN: 0.214.
With SMHT, the “one-hybrid fitness for binding NBS DNA” value was not above 0.2.
PLSG: the “one-hybrid fitness for binding NBS DNA” value is not above 0.2.
Turning to RYAQ, the “one-hybrid fitness for binding NBS DNA” value was not above 0.2.
As for PRNH, the “one-hybrid fitness for binding NBS DNA” value is not above 0.2.
Then AGPL, with not above 0.2.
The same measure for CRRA: not above 0.2.
Then MQHL, with not above 0.2; and GAHP, with not above 0.2; and FYRT, with not above 0.2.
In the case of MPKF, the “one-hybrid fitness for binding NBS DNA” value was not above 0.2.
The same measure for PSYW: not above 0.2; for KQDC: not above 0.2.
Then FRLS, with not above 0.2; and VSIP, with not above 0.2.
Then PGNY, with not above 0.2; and WCPL, with not above 0.2; and SDYS, with not above 0.2.
In the case of VCNC, the “one-hybrid fitness for binding NBS DNA” value is not above 0.2.
The same measure for YRPM: not above 0.2.
Then VAKY, with not above 0.2; and LSNR, with not above 0.2.
Then LVHY, with not above 0.2; and MSGM, with not above 0.2; and CSAW, with not above 0.2.
In the case of CDNY, the “one-hybrid fitness for binding NBS DNA” value was not above 0.2.
Then WCLR, with not above 0.2; and TEQS, with not above 0.2.
In the case of TMST, the “one-hybrid fitness for binding NBS DNA” value was not above 0.2.
Then HMAI, with not above 0.2; and CQQS, with not above 0.2.
The same measure for RAWT: 0.236.
For ICWR, the “one-hybrid fitness for binding NBS DNA” value was not above 0.2.
Then GRKF, with not above 0.2.
Then QWPT, with not above 0.2.
Then GEGT, with not above 0.2; and LGIG, with not above 0.2.
Turning to LMGS, the “one-hybrid fitness for binding NBS DNA” value was not above 0.2.
For CRER, the “one-hybrid fitness for binding NBS DNA” value was not above 0.2.
Then MVDQ, with not above 0.2; and RGSV, with not above 0.2; and QTFY, with not above 0.2.
Turning to HSYM, the “one-hybrid fitness for binding NBS DNA” value is not above 0.2.
The same measure for FFLW: not above 0.2; for RMLC: not above 0.2; for NHMW: not above 0.2.
The same measure for VCTA: not above 0.2; for FCFG: not above 0.2.
The same measure for GGEG: not above 0.2; for ECGC: not above 0.2; for PQAD: not above 0.2.
Turning to QRME, the “one-hybrid fitness for binding NBS DNA” value was not above 0.2.
Then LDAV, with not above 0.2; and CPHC, with not above 0.2.
The same measure for INND: not above 0.2; for LKPC: not above 0.2.
On to PYWE, for which the “one-hybrid fitness for binding NBS DNA” value is not above 0.2.
The same measure for TGFL: not above 0.2; for HWMT: not above 0.2.
As to MMMK, the “one-hybrid fitness for binding NBS DNA” value was not above 0.2.
In the case of KTLN, the “one-hybrid fitness for binding NBS DNA” value is not above 0.2.
The same measure for RDIN: not above 0.2.

Source of the values: a collection of fitness landscapes (doi:10.1016/j.celrep.2020.107928).
